Data from patent US20220267464A1 (Hoffmann-La Roche, published 2022).
Read-outs that look alike come from different tables or passages of the source.

Key:
[1] = biological target: T1, human CEACAM5 (carcinoembryonic antigen, CEA) on cells (human, UniProt P06731 35-685); test: flow cytometry, CHO-k1-huCEACAM5 clone 17; set-up: unit not given beside the values
T1 construct: endogenous on MKN45 gastric adenocarcinoma cells; full-length cDNA stably transfected in the CHO-K1 clones; also called huCEACAM5; MKN45 cells
T1 sequence: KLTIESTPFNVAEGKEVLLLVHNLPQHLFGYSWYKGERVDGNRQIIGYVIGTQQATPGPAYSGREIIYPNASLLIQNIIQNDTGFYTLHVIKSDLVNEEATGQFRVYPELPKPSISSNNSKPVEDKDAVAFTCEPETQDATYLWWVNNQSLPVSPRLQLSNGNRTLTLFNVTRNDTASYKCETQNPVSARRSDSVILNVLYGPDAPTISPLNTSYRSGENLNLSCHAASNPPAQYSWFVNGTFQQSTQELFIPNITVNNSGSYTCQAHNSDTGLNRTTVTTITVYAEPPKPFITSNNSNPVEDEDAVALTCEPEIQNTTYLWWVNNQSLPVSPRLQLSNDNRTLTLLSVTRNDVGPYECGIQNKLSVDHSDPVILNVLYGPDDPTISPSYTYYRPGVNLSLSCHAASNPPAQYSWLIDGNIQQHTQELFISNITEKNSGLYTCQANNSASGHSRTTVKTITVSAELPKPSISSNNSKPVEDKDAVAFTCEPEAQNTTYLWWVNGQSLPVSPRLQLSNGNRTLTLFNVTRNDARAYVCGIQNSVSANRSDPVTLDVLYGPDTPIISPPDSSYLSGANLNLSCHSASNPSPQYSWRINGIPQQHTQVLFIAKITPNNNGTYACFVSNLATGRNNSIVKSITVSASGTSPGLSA

[2] = biological target: T1, human CEACAM5 (carcinoembryonic …); test: flow cytometry, CHO-k1-huCEACAM5 clone 11
[3] = biological target: T1, human CEACAM5 (carcinoembryonic …); test: flow cytometry, CHO-k1-huCEACAM5 clone 11; remark: listed apart in the source
[4] = biological target: T2, cynomolgus monkey CEACAM5 on CHO-k1-cynoCEACAM5 clone 8 cells (cynomolgus monkey); test: flow cytometry, CHO-k1-cynoCEACAM5 clone 8; set-up: unit not given beside the values
T2 construct: whole, on cells

[5] = biological target: T1, human CEACAM5 (carcinoembryonic …); test: flow cytometry, CHO-k1-huCEACAM5 clone 12
[6] = biological target: T1, human CEACAM5 (carcinoembryonic …); test: flow cytometry, CHO-k1-huCEACAM5 clone 12; remark: listed apart in the source
[7] = biological target: T1, human CEACAM5 (carcinoembryonic …); test: flow cytometry, CHO-k1-huCEACAM5 clone 12; set-up: unit not given beside the values
[8] = biological target: T1, human CEACAM5 (carcinoembryonic …); test: flow cytometry, CHO-k1-huCEACAM5 clone 11; set-up: unit not given beside the values
[9] = biological target: T2, cynomolgus monkey CEACAM5 on …; test: cell-based or functional assay
[10] = biological target: T1, human CEACAM5 (carcinoembryonic …); test: cell-based or functional assay
hu N(A2-B2)A-avi-His = biological target: T3, hu N(A2-B2)A-avi-His (human, biotin on the avi tag where used biotinylated); test: SPR (Biacore T200), huN(A2-B2)A immobilised on a CM5 chip, construct injected as analyte 1
T3 construct: chimeric soluble antigen; also called hu N(A2-B2)A-avi-His B; human CEA (A2 domain)
T3 chain: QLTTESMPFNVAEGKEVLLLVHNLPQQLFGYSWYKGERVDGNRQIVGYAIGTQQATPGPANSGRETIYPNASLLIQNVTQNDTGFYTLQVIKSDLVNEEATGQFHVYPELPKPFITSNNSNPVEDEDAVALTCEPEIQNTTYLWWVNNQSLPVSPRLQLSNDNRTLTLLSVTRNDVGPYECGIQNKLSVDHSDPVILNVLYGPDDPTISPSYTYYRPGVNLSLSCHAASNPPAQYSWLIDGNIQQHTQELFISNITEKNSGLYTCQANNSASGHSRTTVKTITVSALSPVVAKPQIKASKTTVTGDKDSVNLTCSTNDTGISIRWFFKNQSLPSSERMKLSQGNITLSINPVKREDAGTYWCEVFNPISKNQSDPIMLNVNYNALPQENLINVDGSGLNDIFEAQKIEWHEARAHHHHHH
Experimental: All SPR experiments were performed on a Biacore T200 at 25° C. with HBS-EP as running buffer (0.01 M HEPES pH 7.4, 0.15 M NaCl, 3 mM EDTA, 0.005% Surfactant P20, Biacore, Freiburg/Germany).
Bulk refractive index differences were corrected for by subtracting the response obtained in a reference flow cell, where no protein was immobilized.

[11] = biological target: T2, cynomolgus monkey CEACAM5 on …; test: flow cytometry, CHO-k1-cynoCEACAM5 clone 8; set-up: unit not given beside the values; remark: listed apart in the source
[12] = biological target: T1, human CEACAM5 (carcinoembryonic …); test: flow cytometry, CHO-k1-huCEACAM5 clone 12; set-up: unit not given beside the values; remark: listed apart in the source
[13] = biological target: T1, human CEACAM5 (carcinoembryonic …); test: flow cytometry, CHO-k1-huCEACAM5 clone 17
[14] = biological target: T1, human CEACAM5 (carcinoembryonic …); test: flow cytometry, CHO-k1-huCEACAM5 clone 13; set-up: unit not given beside the values
[15] = biological target: T2, cynomolgus monkey CEACAM5 on …; test: cell-based or functional assay; set-up: AUC of activation curve, Jurkat-hu4-1BB-NFκB-luc2, no CEA+ cells / AUC of activation curve, Jurkat-hu4-1BB-NFκB-luc2 with CHO-k1-cyno CEACAM5 clone 8: unit not given beside the values
[16] = biological target: human 4-1BB on Jurkat-hu4-1BB-NFκB-luc2 reporter cells (human, UniProt Q07011 24-255); test: cell-based or functional assay; set-up: AUC of activation curve, Jurkat-hu4-1BB-NFκB-luc2, no CEA+ cells / AUC of activation curve, Jurkat-hu4-1BB-NFκB-luc2 with CHO-k1-cyno CEACAM5 clone 8: unit not given beside the values
[17] = biological target: T1, human CEACAM5 (carcinoembryonic …); test: cell-based or functional assay; set-up: AUC of activation curve, Jurkat-hu4-1BB-NFκB-luc2, no CEA+ cells / AUC of activation curve, Jurkat-hu4-1BB-NFκB-luc2 with CHO-k1-cyno CEACAM5 clone 8: unit not given beside the values
[18] = biological target: T1, human CEACAM5 (carcinoembryonic …); test: flow cytometry, CHO-k1-huCEACAM5 clone 11; set-up: unit not given beside the values; remark: listed apart in the source

Sequence of UniProt Q07011 (Q07011 24-255 limits assumed): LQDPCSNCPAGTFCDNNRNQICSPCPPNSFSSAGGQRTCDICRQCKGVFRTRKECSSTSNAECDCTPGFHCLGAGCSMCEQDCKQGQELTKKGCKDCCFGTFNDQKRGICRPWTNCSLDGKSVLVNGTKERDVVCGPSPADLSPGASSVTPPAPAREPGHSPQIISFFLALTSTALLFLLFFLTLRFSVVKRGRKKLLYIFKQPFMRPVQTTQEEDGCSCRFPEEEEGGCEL

AUC [1]: 9080
EC50 [2]: 296 nM
EC50 [3]: 61.7 nM
AUC [4]: 6190
EC50 [5]: 148 nM
EC50 [6]: 691 nM
AUC [7]: 30500
AUC [8]: 1530
EC50, NFκB-luciferase in Jurkat-hu4-1BB-NFκB-luc2 with CHO-k1-cyno CEACAM5 clone 8 [9]: 0.53 nM
EC50, NFκB-luciferase in Jurkat-hu4-1BB-NFκB-luc2 with CHO-k1-human CEACAM5 clone 11 [10]: 0.16 nM
EC50, NFκB-luciferase in Jurkat-hu4-1BB-NFκB-luc2 with CHO-k1-human CEACAM5 clone 12 [10]: 0.09 nM
binding result (hu N(A2-B2)A-avi-His): binds
AUC [11]: 368
AUC [12]: 4420
EC50 [13]: 190 nM
AUC [14]: 48500
AUC of activation curve, Jurkat-hu4-1BB-NFκB-luc2 with CHO-k1-cyno CEACAM5 clone 8 [15]: 61700
AUC of activation curve, Jurkat-hu4-1BB-NFκB-luc2, no CEA+ cells [16]: 2560
AUC of activation curve, Jurkat-hu4-1BB-NFκB-luc2 with CHO-k1-human CEACAM5 clone 11 [17]: 131000
AUC of activation curve, Jurkat-hu4-1BB-NFκB-luc2 with CHO-k1-human CEACAM5 clone 12 [17]: 137000
AUC [18]: 8760
B1: CEA(A5H1EL1D)-4-1BBL (Fc fusion)
chain 1: REGPELSPDDPAGLLDLRQGMFAQLVAQNVLLIDGPLSWYSDPGLAGVSLTGGLSYKEDTKELVVAKAGVYYVFFQLELRRVVAGEGSGSVSLALHLQPLRSAAGAAALALTVDLPPASSEARNSAFGFQGRLLHLSAGQRLGVHLHTEARARHAWQLTQGATVLGLFRVTPEIPAGLGGGGSGGGGSREGPELSPDDPAGLLDLRQGMFAQLVAQNVLLIDGPLSWYSDPGLAGVSLTGGLSYKEDTKELVVAKAGVYYVFFQLELRRVVAGEGSGSVSLALHLQPLRSAAGAAALALTVDLPPASSEARNSAFGFQGRLLHLSAGQRLGVHLHTEARARHAWQLTQGATVLGLFRVTPEIPAGLGGGGSGGGGSRTVAAPSVFIFPPSDRKLKSGTASVVCLLNNFYPREAKVQWKVDNALQSGNSQESVTEQDSKDSTYSLSSTLTLSKADYEKHKVYACEVTHQGLSSPVTKSFNRGE[human IgG1 Fc with changes not spelt out]
chain 2: REGPELSPDDPAGLLDLRQGMFAQLVAQNVLLIDGPLSWYSDPGLAGVSLTGGLSYKEDTKELVVAKAGVYYVFFQLELRRVVAGEGSGSVSLALHLQPLRSAAGAAALALTVDLPPASSEARNSAFGFQGRLLHLSAGQRLGVHLHTEARARHAWQLTQGATVLGLFRVTPEIPAGLGGGGSGGGGSASTKGPSVFPLAPSSKSTSGGTAALGCLVEDYFPEPVTVSWNSGALTSGVHTFPAVLQSSGLYSLSSVVTVPSSSLGTQTYICNVNHKPSNTKVDEKVEPKSC
heavy: EVQLLESGGGLVQPGGSLRLSCAASGFTFTDYYMNWVRQAPGKGLEWLGFIGNKANAYTTEYSASVKGRFTISRDKSKNTLYLQMNSLRAEDTATYYCTRDRGLRFYFDYWGQGTTVTVSSASTKGPSVFPLAPSSKSTSGGTAALGCLVKDYFPEPVTVSWNSGALTSGVHTFPAVLQSSGLYSLSSVVTVPSSSLGTQTYICNVNHKPSNTKVDKKVEPKSCDKTHTCPPCPAPEAAGGPSVFLFPPKPKDTLMISRTPEVTCVVVDVSHEDPEVKFNWYVDGVEVHNAKTKPREEQYNSTYRVVSVLTVLHQDWLNGKEYKCKVSNKALGAPIEKTISKAKGQPREPQVCTLPPSRDELTKNQVSLSCAVKGFYPSDIAVEWESNGQPENNYKTTPPVLDSDGSFFLVSKLTVDKSRWQQGNVFSCSVMHEALHNHYTQKSLSLSP
light: EIVLTQSPATLSLSPGERATLSCRASSSVTYIHWYQQKPGQAPRSWIYATSNLASGIPARFSGSGSGTDFTLTISSLEPEDFAVYYCQHWSSKPPTFGQGTKLEIKRTVAAPSVFIFPPSDEQLKSGTASVVCLLNNFYPREAKVQWKVDNALQSGNSQESVTEQDSKDSTYSLSSTLTLSKADYEKHKVYACEVTHQGLSSPVTKSFNRGEC
notes: split trimeric 4-1BBL Fc (kih) P329G LALA with one anti-CEA Fab
